Laboratory results reported in paper PMC5679597.
These are yes or no findings as the source states them, for the method shown. Binding seen in cells or lysates may run through a third protein. Some results given as binding are weak or reduced against the parent protein; the word gives no strength. Where a sequence is shown, tags or fusion partners need not be part of it. Blank lines part the entries; values can stand above or below the molecule they belong to.

Amino acid sequences for entries named in this document (tags omitted). Residues count along the entry.
UniProt Q13136: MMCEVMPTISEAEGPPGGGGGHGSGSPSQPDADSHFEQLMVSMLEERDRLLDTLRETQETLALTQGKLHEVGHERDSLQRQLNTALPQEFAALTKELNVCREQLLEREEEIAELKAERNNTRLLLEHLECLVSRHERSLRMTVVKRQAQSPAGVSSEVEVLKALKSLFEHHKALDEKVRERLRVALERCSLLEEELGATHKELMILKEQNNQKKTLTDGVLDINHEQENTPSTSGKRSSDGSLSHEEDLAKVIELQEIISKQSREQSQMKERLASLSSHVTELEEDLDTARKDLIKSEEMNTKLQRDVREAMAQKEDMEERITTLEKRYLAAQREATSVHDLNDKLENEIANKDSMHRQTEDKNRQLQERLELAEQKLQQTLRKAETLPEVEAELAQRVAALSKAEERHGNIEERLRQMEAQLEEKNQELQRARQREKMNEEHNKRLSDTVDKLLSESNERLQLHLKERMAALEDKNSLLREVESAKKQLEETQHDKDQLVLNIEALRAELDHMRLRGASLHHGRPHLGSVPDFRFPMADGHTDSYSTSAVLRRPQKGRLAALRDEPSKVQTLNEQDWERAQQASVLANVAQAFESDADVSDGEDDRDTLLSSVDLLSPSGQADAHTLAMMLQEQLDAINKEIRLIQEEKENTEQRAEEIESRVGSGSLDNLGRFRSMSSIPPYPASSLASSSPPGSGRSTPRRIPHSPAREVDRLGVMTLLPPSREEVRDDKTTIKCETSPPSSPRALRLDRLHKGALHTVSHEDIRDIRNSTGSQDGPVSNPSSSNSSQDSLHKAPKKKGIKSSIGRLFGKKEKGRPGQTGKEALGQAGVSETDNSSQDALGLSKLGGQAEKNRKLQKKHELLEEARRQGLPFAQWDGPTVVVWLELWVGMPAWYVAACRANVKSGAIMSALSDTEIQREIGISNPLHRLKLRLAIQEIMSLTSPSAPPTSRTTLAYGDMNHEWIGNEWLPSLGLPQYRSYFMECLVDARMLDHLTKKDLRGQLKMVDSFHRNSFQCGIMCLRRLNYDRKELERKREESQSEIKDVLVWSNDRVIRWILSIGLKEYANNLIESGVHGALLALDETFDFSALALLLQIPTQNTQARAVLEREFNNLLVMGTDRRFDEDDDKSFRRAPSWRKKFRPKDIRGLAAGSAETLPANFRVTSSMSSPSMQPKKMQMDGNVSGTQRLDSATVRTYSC
UniProt Q15375, residues 28-998: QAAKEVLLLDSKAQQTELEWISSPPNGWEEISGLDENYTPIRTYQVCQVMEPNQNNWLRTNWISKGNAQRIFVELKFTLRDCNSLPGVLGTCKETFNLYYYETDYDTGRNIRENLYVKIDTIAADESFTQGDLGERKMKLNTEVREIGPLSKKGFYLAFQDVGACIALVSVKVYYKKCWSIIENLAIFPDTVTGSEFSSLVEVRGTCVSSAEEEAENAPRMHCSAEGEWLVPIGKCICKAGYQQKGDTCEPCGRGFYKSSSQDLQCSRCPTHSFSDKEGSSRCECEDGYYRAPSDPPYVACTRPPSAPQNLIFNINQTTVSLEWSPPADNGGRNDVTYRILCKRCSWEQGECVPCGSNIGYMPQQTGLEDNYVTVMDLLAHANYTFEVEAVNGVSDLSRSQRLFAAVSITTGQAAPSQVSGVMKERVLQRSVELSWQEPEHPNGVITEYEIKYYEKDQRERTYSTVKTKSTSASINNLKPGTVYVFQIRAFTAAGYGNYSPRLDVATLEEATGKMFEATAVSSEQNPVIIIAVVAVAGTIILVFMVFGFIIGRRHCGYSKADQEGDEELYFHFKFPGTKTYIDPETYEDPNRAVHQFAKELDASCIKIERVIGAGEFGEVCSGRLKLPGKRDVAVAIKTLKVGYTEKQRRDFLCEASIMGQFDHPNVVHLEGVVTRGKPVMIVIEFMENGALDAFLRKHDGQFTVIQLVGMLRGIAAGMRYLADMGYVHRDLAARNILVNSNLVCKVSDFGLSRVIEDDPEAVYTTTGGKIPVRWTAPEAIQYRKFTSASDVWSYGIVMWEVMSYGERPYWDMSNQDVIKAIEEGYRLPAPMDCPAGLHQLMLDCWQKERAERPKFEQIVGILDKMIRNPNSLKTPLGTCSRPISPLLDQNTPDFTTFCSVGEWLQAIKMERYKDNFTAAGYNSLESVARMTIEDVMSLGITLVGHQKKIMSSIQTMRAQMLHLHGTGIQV
UniProt Q12802: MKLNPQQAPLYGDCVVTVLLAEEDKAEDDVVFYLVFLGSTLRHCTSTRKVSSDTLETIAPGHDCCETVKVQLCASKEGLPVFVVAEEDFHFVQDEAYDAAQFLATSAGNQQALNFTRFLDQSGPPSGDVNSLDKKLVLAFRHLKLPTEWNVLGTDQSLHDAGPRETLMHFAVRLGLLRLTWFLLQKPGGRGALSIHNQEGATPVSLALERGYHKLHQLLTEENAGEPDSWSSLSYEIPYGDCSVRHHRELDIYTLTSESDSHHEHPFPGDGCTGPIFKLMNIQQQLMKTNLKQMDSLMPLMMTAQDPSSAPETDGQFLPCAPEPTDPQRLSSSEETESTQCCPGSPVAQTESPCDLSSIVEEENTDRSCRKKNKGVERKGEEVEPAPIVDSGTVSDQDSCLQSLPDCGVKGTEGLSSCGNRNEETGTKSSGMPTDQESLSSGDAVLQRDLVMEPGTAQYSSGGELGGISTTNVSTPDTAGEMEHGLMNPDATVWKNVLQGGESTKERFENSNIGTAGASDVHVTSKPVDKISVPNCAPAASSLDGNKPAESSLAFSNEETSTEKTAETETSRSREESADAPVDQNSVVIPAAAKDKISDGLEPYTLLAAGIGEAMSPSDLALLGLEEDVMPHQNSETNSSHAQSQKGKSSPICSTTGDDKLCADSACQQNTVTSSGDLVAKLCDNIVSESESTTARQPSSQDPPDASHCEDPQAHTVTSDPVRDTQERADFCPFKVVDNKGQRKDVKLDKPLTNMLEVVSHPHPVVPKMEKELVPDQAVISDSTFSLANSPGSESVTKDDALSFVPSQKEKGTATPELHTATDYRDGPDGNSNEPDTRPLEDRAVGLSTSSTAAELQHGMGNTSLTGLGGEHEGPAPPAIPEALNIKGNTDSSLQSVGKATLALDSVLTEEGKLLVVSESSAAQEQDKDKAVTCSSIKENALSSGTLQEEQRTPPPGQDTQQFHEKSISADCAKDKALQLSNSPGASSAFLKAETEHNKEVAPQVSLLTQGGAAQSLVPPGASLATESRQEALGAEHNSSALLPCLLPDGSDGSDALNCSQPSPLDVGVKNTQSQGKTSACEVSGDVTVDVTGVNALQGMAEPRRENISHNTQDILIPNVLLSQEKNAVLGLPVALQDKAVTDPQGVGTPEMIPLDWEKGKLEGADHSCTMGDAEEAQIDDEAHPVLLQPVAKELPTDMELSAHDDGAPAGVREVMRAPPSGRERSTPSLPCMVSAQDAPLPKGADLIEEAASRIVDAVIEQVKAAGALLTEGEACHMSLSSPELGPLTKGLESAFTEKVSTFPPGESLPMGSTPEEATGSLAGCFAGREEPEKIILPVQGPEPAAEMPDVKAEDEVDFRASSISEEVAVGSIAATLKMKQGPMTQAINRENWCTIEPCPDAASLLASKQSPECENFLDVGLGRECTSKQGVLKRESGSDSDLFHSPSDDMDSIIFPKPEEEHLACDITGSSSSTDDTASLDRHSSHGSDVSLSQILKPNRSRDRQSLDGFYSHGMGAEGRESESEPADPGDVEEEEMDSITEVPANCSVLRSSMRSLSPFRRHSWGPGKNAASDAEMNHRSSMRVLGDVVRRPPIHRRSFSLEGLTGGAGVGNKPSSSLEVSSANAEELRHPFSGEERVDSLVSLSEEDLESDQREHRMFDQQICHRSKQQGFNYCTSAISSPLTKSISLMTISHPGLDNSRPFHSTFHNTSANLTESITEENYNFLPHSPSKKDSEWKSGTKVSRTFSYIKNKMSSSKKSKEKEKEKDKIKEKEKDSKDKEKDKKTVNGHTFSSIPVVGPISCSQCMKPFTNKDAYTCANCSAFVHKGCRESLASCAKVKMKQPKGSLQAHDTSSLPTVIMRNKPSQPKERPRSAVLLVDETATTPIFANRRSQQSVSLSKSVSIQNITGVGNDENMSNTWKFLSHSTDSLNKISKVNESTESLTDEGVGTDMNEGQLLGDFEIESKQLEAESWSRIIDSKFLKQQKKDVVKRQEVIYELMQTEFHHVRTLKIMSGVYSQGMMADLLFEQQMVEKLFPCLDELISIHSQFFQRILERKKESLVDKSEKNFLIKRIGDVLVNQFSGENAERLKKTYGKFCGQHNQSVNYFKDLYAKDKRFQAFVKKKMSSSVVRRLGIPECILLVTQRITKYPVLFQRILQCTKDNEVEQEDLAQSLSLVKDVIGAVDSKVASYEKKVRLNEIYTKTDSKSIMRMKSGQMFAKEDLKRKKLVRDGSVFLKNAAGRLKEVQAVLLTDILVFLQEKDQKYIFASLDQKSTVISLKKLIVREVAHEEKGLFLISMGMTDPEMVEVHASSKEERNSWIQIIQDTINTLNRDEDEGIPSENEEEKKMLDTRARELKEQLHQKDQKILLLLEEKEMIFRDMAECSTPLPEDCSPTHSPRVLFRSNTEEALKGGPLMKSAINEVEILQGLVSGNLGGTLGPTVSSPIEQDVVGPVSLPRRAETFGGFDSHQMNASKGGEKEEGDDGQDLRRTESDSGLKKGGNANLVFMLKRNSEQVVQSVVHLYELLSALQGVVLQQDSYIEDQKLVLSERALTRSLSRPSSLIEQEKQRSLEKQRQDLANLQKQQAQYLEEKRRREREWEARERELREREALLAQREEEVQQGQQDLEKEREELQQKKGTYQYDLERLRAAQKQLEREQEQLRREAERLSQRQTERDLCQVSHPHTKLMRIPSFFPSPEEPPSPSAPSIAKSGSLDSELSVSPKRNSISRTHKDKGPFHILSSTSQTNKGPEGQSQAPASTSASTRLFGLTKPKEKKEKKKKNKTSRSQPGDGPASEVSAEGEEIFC

Legend:
Experiment in all cases: pull-down; GFP pull-down: GFP-tagged LNX constructs transfected into HEK 293 cells (HEK 293T in Fig 3A) alone or with the partner, captured on GFP-Trap_M beads, western blot; NaCl in the wash up to 500 mM in some cases
[1] = target: T1, GFP-tagged LNX1p80 (Ligand of Numb protein X1, p80 isoform) (mouse) (UniProt O70263)
T1 sequence: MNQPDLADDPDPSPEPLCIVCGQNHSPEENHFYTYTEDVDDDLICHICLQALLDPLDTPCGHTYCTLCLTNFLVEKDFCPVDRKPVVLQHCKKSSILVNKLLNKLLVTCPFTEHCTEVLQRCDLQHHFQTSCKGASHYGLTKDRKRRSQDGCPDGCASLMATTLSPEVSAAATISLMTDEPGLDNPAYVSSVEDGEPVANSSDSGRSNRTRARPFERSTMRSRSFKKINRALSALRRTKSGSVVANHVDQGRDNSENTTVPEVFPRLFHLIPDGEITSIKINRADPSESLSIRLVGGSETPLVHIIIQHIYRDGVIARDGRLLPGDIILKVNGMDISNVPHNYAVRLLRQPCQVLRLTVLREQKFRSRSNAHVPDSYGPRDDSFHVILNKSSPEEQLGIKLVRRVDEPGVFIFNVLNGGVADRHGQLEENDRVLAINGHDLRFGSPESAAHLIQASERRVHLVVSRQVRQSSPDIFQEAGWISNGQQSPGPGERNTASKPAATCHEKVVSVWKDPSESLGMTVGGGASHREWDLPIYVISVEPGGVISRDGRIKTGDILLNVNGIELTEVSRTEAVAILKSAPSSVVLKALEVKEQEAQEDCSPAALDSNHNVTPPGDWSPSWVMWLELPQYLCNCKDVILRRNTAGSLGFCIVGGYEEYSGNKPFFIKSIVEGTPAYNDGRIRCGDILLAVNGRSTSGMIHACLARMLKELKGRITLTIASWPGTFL

GFP-tagged LNX2 (mouse) = target: T2, GFP-tagged LNX2 (mouse) (UniProt Q91XL2)
T2 sequence: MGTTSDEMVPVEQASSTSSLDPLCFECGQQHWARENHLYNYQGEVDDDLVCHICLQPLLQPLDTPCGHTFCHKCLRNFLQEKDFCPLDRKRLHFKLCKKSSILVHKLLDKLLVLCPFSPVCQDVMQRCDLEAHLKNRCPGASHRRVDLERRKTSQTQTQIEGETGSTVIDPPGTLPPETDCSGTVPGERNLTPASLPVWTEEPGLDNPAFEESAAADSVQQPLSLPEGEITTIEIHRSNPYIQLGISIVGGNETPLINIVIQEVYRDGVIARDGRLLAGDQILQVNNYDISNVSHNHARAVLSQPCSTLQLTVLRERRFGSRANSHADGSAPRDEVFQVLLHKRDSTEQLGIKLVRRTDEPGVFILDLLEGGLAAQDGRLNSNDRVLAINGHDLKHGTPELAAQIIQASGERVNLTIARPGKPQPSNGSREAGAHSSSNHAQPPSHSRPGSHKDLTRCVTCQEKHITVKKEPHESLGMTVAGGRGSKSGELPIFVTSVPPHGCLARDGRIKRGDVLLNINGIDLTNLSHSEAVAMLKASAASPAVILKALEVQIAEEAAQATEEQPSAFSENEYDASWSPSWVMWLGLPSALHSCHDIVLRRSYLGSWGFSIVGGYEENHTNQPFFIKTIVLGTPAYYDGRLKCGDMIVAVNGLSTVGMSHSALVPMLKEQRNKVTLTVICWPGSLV

[2] = target: T3, GFP-LNX1 PDZ1-4 fragment (aa268-728) (mouse) (UniProt O70263)
T3 sequence: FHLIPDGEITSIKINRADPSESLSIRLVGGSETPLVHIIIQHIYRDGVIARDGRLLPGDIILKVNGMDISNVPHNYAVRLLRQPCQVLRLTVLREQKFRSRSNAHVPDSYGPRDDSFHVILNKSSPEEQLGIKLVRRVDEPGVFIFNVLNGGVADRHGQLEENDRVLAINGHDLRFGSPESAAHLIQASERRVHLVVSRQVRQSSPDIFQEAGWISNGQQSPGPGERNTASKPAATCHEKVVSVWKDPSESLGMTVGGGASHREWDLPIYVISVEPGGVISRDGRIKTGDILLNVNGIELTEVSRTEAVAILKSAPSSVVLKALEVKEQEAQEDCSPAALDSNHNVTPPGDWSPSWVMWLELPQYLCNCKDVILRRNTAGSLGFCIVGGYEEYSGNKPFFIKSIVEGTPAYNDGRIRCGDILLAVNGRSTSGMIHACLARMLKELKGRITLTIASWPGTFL

[3] = target: T4, GFP-LNX1 PDZ2 (aa377-470) (mouse) (UniProt O70263)
T4 sequence: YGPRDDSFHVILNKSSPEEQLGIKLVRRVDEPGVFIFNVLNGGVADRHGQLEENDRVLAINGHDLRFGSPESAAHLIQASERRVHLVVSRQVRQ

binding [2]: binds
binding [1]: binds
binding (GFP-tagged LNX2 (mouse)): no binding
binding [3]: binds
Molecule: Liprin-alpha-1 (PPFIA1), endogenous (from UniProt Q13136 1-1202)

binding [1]: binds
B2: TRIM27, transfected, epitope-tagged (aa 1-513) (protein, UniProt P14373-1 1-513)
chain: MASGSVAECLQQETTCPVCLQYFAEPMMLDCGHNICCACLARCWGTAETNVSCPQCRETFPQRHMRPNRHLANVTQLVKQLRTERPSGPGGEMGVCEKHREPLKLYCEEDQMPICVVCDRSREHRGHSVLPLEEAVEGFKEQIQNQLDHLKRVKDLKKRRRAQGEQARAELLSLTQMEREKIVWEFEQLYHSLKEHEYRLLARLEELDLAIYNSINGAITQFSCNISHLSSLIAQLEEKQQQPTRELLQDIGDTLSRAERIRIPEPWITPPDLQEKIHIFAQKCLFLTESLKQFTEKMQSDMEKIQELREAQLYSVDVTLDPDTAYPSLILSDNLRQVRYSYLQQDLPDNPERFNLFPCVLGSPCFIAGRHYWEVEVGDKAKWTIGVCEDSVCRKGGVTSAPQNGFWAVSLWYGKEYWALTSPMTALPLRTPLQRVGIFLDYDAGEVSFYNVTERCHTFTFSHATFCGPVRPYFSLSYSGGKSAAPLIICPMSGIDGFSGHVGNHGHSMETSP

binding [2]: binds
binding [1]: binds
binding (GFP-tagged LNX2 (mouse)): no binding
B3: MID2, transfected, HA or GST epitope-tagged (Fig 1B) (protein, UniProt Q9UJV3-2 1-705)
chain: MGESPASVVLNASGGLFSLKMETLESELTCPICLELFEDPLLLPCAHSLCFSCAHRILVSSCSSGESIEPITAFQCPTCRYVISLNHRGLDGLKRNVTLQNIIDRFQKASVSGPNSPSESRRERTYRPTTAMSSERIACQFCEQDPPRDAVKTCITCEVSYCDRCLRATHPNKKPFTSHRLVEPVPDTHLRGITCLDHENEKVNMYCVSDDQLICALCKLVGRHRDHQVASLNDRFEKLKQTLEMNLTNLVKRNSELENQMAKLIQICQQVEVNTAMHEAKLMEECDELVEIIQQRKQMIAVKIKETKVMKLRKLAQQVANCRQCLERSTVLINQAEHILKENDQARFLQSAKNIAERVAMATASSQVLIPDINFNDAFENFALDFSREKKLLEGLDYLTAPNPPSIREELCTASHDTITVHWISDDEFSISSYELQYTIFTGQANFISLYNSVDSWMIVPNIKQNHYTVHGLQSGTRYIFIVKAINQAGSRNSEPTRLKTNSQPFKLDPKMTHKKLKISNDGLQMEKDESSLKKSHTPERFSGTGCYGAAGNIFIDSGCHYWEVVMGSSTWYAIGIAYKSAPKNEWIGKNASSWVFSRCNSNFVVRHNNKEMLVDVPPHLKRLGVLLDYDNNMLSFYDPANSLHLHTFDVTFILPVCPTFTIWNKSLMILSGLPAPDFIDYPERQECNCRPQESPYVSGMKTCH

Continued, molecule first:

Molecule: EphA7, transfected, HA or GST epitope-tagged (Fig 1B) (from UniProt Q15375 28-998) (receptor)
binding [1]: binds
binding (GFP-tagged LNX2 (mouse)): binds

Molecule: AKAP13, transfected, HA or GST epitope-tagged (Fig 1B) (from UniProt Q12802 1-2813)
binding [2]: binds
binding [1]: binds
binding (GFP-tagged LNX2 (mouse)): no binding
binding [3]: binds

B1: FLAG-MID2 RING domain - BBOX type Zinc finger-2 (aa 1-235) (domain or fragment, UniProt Q9UJV3-2 1-235)
chain: MGESPASVVLNASGGLFSLKMETLESELTCPICLELFEDPLLLPCAHSLCFSCAHRILVSSCSSGESIEPITAFQCPTCRYVISLNHRGLDGLKRNVTLQNIIDRFQKASVSGPNSPSESRRERTYRPTTAMSSERIACQFCEQDPPRDAVKTCITCEVSYCDRCLRATHPNKKPFTSHRLVEPVPDTHLRGITCLDHENEKVNMYCVSDDQLICALCKLVGRHRDHQVASLNDR
binding [1]: no binding

B4: FLAG-MID2 full length (aa 1-705) (protein, UniProt Q9UJV3-2 1-705)
chain: B3 chain
binding [1]: binds

B5: FLAG-MID2 FN3 domain-SPRY domain (aa 395-705) (domain or fragment, UniProt Q9UJV3-2 395-705)
chain: GLDYLTAPNPPSIREELCTASHDTITVHWISDDEFSISSYELQYTIFTGQANFISLYNSVDSWMIVPNIKQNHYTVHGLQSGTRYIFIVKAINQAGSRNSEPTRLKTNSQPFKLDPKMTHKKLKISNDGLQMEKDESSLKKSHTPERFSGTGCYGAAGNIFIDSGCHYWEVVMGSSTWYAIGIAYKSAPKNEWIGKNASSWVFSRCNSNFVVRHNNKEMLVDVPPHLKRLGVLLDYDNNMLSFYDPANSLHLHTFDVTFILPVCPTFTIWNKSLMILSGLPAPDFIDYPERQECNCRPQESPYVSGMKTCH
binding [1]: binds

B6: FLAG-MID2 Coiled coil-COS domain (aa 222-406) (domain or fragment, UniProt Q9UJV3-2 222-406)
chain: GRHRDHQVASLNDRFEKLKQTLEMNLTNLVKRNSELENQMAKLIQICQQVEVNTAMHEAKLMEECDELVEIIQQRKQMIAVKIKETKVMKLRKLAQQVANCRQCLERSTVLINQAEHILKENDQARFLQSAKNIAERVAMATASSQVLIPDINFNDAFENFALDFSREKKLLEGLDYLTAPNPPS
binding [1]: no binding
